Data: PubChem BioAssay AID488969 (Vanderbilt High Throughput Screening Facility, 2010)
The full ranking holds about 110,000 compounds; the median of “z-score” is about -0.1, and the highest 2% start at about 2. Some of the results follow. The source made the active and inactive calls.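 The calls were made as follows: active = z-score in the third read window above 3 or below -3; inactive = the rest.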

Each compound was assayed against Metabotropic glutamate receptor 8 (Rattus norvegicus) (UniProt P70579) (assay: rat mGluR8 modulators via GIRK flux, primary screen, cell-based, thallium flux, HTS (AID 488969)). Conditions: HEK293 rat mGluR8, GIRK (G protein-gated inwardly rectifying potassium channel) thallium flux, FluoZin2; at 10 µM; stronger effect = higher value; submaximal glutamate (EC20) added with thallium.
Chain of UniProt P70579 (P70579 whole entry, looked up): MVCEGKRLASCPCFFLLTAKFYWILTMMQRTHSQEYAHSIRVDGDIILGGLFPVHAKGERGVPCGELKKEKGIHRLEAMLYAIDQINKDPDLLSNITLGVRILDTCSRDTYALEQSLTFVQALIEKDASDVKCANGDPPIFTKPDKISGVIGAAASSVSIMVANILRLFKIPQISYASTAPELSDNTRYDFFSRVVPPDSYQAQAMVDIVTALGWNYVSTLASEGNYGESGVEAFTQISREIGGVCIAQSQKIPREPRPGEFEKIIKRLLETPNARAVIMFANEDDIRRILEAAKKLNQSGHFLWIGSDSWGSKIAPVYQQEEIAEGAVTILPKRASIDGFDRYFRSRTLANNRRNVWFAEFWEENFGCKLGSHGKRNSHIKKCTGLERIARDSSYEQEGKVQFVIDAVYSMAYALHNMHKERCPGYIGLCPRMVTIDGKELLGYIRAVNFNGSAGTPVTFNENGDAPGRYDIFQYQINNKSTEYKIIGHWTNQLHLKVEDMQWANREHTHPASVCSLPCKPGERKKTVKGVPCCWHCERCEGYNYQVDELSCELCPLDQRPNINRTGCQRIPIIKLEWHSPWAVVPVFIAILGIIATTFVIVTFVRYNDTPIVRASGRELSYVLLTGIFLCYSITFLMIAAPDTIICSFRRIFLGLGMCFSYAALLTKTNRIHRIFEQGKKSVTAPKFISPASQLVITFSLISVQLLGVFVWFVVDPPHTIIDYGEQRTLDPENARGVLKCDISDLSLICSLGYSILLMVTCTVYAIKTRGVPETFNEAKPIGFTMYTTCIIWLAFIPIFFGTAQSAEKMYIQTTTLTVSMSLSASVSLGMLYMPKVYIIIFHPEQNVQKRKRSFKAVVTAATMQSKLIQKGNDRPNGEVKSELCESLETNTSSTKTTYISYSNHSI
Work on `COCCN(C(=S)Nc1cccc(OC)c1)C1CCN(C(C)C)CC1` yielded a z-score of -0.31. For `COc1ccc(OC)c(S(=O)(=O)n2nc(C)cc2C)c1`, the z-score was 0.244. Work on `O=C(CN1CCSC1=NCc1ccccc1)c1ccccc1` yielded a z-score of 0.153. `CCCCCc1ccc(-c2ccc(/C=C/C(N)=O)cc2)nc1` gave a z-score of -0.563. With `COc1ccc(N2C(=O)CCC(C(=O)N3CCCCC3)C2c2ccc(OC)c(OC)c2)cc1` (stereo unspecified) the z-score was 0.367. Compound `CC(=O)c1sc(NC(=O)c2ccc(F)c(F)c2)nc1C` has a z-score of 0.507. With `CCSc1nc(C(F)(F)F)cc(=O)n1-c1ccccc1` the z-score was -0.0745. `CCC(C)NC(=O)C1c2cc(OC)c(OC)cc2C(=O)N(C)C1c1cccs1` (stereo unspecified) gave a z-score of -0.125. `CCCN1C2CCCC1CC(NC(=O)c1cc(OC)c(OC)c(OC)c1)C2` (stereo unspecified) gave a z-score of -0.439. In the case of `CCC(CC)NC(=O)CCc1nc2ccccc2c(=O)[nH]1`, the z-score was -0.168. Compound `Cc1nnc(SCC(=O)N2CCOCC2)s1` has a z-score of 0.532. In the case of `Fc1ccc(-n2[nH]nnc2=S)cc1N1CCCC1`, the z-score was -0.553. `Cc1ccc(Br)cc1S(=O)(=O)N1CCN(c2ccccc2)CC1` gave a z-score of -0.421. With `COc1cccc2cc(C(=O)n3ccc(C)n3)c(=O)oc12` the z-score was -1.33. For `O=C(c1ccccc1)N(Cc1ccc(F)cc1)C1CCS(=O)(=O)C1` (stereo unspecified), the z-score was -0.0413. Compound `CCCNC(=O)c1ccccc1NC(=O)C1COc2ccccc2O1` (stereo unspecified) has a z-score of -0.394. For `CCCC(=O)Nc1nc2n(n1)C(c1ccccc1)CC(=O)N2` (stereo unspecified), the z-score was 0.108. In the case of `CC(C)(C)n1nnnc1C(c1cccs1)N1CCN(c2ccccc2)CC1` (stereo unspecified), the z-score was -0.223. With `NNc1nc2sc3c(c2c(=O)[nH]1)CCc1ccccc1-3` the z-score was 0.414. `S=c1[nH]nc(C2CC2)n1Cc1ccco1` showed a z-score of 0.0104. Work on `Cc1cc(C)c(OCC(=O)Nc2ccc3c(c2)OCO3)cc1C` yielded a z-score of -0.119. With `Cc1cc(C)n(-c2ccc(C(=O)Nc3nc4ccccc4s3)cc2)n1` the z-score was -0.388. For `O=C1/C(=C/c2cccnc2)Oc2cc(OS(=O)(=O)c3ccc(Cl)cc3)ccc21`, the z-score was 0.0689. In the case of `COc1cccc(C(C(=O)NC2CCCC2)N(Cc2ccccc2OC)C(=O)c2ccco2)c1` (stereo unspecified), the z-score was -0.323. Work on `O=C1OC(c2cccc([N+](=O)[O-])c2)C2(CCCC2)C(=O)C12CCCCC2` (stereo unspecified) yielded a z-score of -0.0355. For `O=C(O)c1ccc(CSc2ncn[nH]2)cc1`, the z-score was 0.0804. `CCCOc1ccc(Br)cc1/C=N/O` showed a z-score of -0.606. `CSC(=N/N=C(\N)c1cnccn1)SC` was tested, and the z-score was -0.178. `CC(C)C(NC(=O)OCc1ccccc1)C(=O)NC1CCCCC1` (stereo unspecified) was tested, and the z-score was 0.0443. In the case of `Nc1c(N(CCO)C(=O)COc2ccc(Cl)cc2)c(=O)[nH]c(=O)n1Cc1ccccc1`, the z-score was -0.167. `CCOC(=O)C1CCN(C(=O)c2ccccc2NC(=O)c2ccc(Br)cc2)CC1` showed a z-score of -0.129. `CCOC(=O)COc1ccc2c(c1)c(C(=O)OCC)c(C)n2CC` was tested, and the z-score was -2.56. `CCN1/C(=C2/OC(=S)N(C)C2=O)Sc2ccccc21` gave a z-score of 1.02. Work on `CSC1=C(C#N)C(c2cccs2)CC(=O)N1C` (stereo unspecified) yielded a z-score of -0.0432. With `Cn1cccc1Cc1nnc(SCC(=O)Nc2ccc3c(c2)OCCO3)n1CCc1ccccc1` the z-score was 1.59. `COc1ccc2[nH]c3c(N4CCC(O)(c5cccc(C(F)(F)F)c5)CC4)ncnc3c2c1` was tested, and the z-score was -0.461. Work on `CN(C)S(=O)(=O)c1ccc2oc(SCC(N)=O)nc2c1` yielded a z-score of 0.202. For `COc1ccc(C(=O)Nc2ccc(NC(=O)c3cnccn3)cn2)cc1`, the z-score was -0.0686. For `C/C(=N/NS(C)(=O)=O)c1ccc2ccccc2c1`, the z-score was -0.0951. `O=C(O)CCCN=C1CCCc2ccccc2N1` showed a z-score of 0.175. With `CCOC(=O)C1=C(C)N=c2s/c(=C3\C(=O)Nc4ccccc43)c(=O)n2C1c1ccc2c(c1)OCO2` (stereo unspecified) the z-score was -0.479. `CCOC(=O)c1sc2nc(N3CCCC3)c3c(c2c1N)CC(C)(C)OC3` gave a z-score of -0.218. In the case of `COc1ccc(NC(=O)CCSCCC(=O)Nc2ccc(OC)cc2OC)c(OC)c1`, the z-score was -0.281. In the case of `CCNS(=O)(=O)c1ccc(CCC(=O)NCCC2=CCCCC2)cc1`, the z-score was -0.0738. In the case of `Cc1cc(N2C(=O)C3CC=CCC3C2=O)cc(C)c1Br` (stereo unspecified), the z-score was 0.272. In the case of `Cc1cc(=O)oc2cc(OCCSc3nnc(-c4ccccc4)o3)ccc12`, the z-score was 0.0557. `COC(=O)C1=C(C)N(CC(C)C)C(=O)/C1=C\c1cccs1` gave a z-score of -0.236. Work on `Cn1c(CSc2nc3ccccc3s2)nnc1SCC(=O)NCc1ccccn1` yielded a z-score of 0.0355. With `CCOC(=O)c1sc2nc(CSc3nc4ccccc4n3CC)[nH]c(=O)c2c1C` the z-score was 2.68. For `CCc1ccc(N(C(=O)c2ccoc2C)C(C(=O)NC2CCCC2)c2ccc(OC)cc2)cc1` (stereo unspecified), the z-score was -0.169. Work on `Cc1oc(-c2ccc(Cl)cc2)nc1CN1CCC(C(=O)NCc2cccnc2)CC1` yielded a z-score of -0.164. Work on `O=C(/C=C\Nc1cccc(F)c1)c1ccc2c(c1)OCO2` yielded a z-score of 0.21. For `C/C(=N\Nc1ccc(Cl)cc1)c1ccccn1`, the z-score was -0.158. With `CN(CC(=O)Nc1ccccc1N1CCOCC1)S(=O)(=O)c1ccc(Cl)cc1` the z-score was -0.106. `CCN(CC)S(=O)(=O)c1ccc(NC2c3ccccc3C(=O)N2Cc2ccc3c(c2)OCO3)cc1` (stereo unspecified) gave a z-score of 0.00823. `COc1c(C)cc(S(=O)(=O)NC2CC(C)(C)NC(C)(C)C2)c(C)c1C` was tested, and the z-score was 0.35. For `Cc1cccc(NC(=S)NCCC(C)C)c1`, the z-score was 0.131. In the case of `O=C(CSc1nc(-c2ccc(F)cc2)cc(C(F)(F)F)n1)Nc1ccc2c(c1)OCO2`, the z-score was -0.336. Work on `O=C(Nc1ccccc1)c1ccc(-c2ccc(Br)cc2)o1` yielded a z-score of 0.664. With `Cc1cc(C)c(S(=O)(=O)Nc2cc(SCC(=O)O)c(O)c3ccccc23)cc1C` the z-score was -0.297. `CN(C(=O)COC(=O)c1ccc2c(c1)NC(=O)CS2)C1CCS(=O)(=O)C1` (stereo unspecified) showed a z-score of -0.091. In the case of `CCOC(=O)C(Oc1ccc2c(-c3ccc(OC)cc3)cc(=O)oc2c1C)c1ccccc1` (stereo unspecified), the z-score was -0.275. Work on `O=[N+]([O-])c1ccc(/C=N/n2c(CO)nc3ccccc32)s1` yielded a z-score of -0.353. Compound `CC(=O)N1CN(C2CCCC2)Cc2c1sc1c2CCCC1` has a z-score of 1.37. `Cc1cc(C)nc(NS(=O)(=O)c2ccc(NC(=O)CN3C(=O)c4ccccc4C3=O)cc2)n1` gave a z-score of 0.113. `CCOC(=O)c1ccc(Oc2nc(NC(C)(C)C)nc(N(C)C)n2)cc1` gave a z-score of 0.241. For `CCOC(=O)c1ccc(NC(=O)C2(c3ccc(OC)cc3)CCCC2)cc1`, the z-score was 0.229. Work on `CCCOC(=O)Nc1cccc(C(C)=O)c1` yielded a z-score of 0.637. `COc1ccc2c(c1)OC(O)(C(F)(F)F)CC2=O` (stereo unspecified) showed a z-score of 0.143. In the case of `CSc1c(CC(=O)Nc2ccccc2C(F)(F)F)n(Cc2ccccc2)c2ccccc12`, the z-score was -0.00769. `Cc1cc(C)n2c(SCC(=O)Nc3ccccc3)nnc2n1` was tested, and the z-score was -0.478. `Cc1ccc(C(=O)NCCCn2ccnc2)cn1` gave a z-score of -0.141. `COc1cccc(C(=O)N/N=C2/SCC(=O)N2CCc2ccc(OC)c(OC)c2)c1` was tested, and the z-score was 0.21. In the case of `COC(=O)CSc1nc2ccccc2o1`, the z-score was -0.541. Work on `Cc1cc(C(=O)CSc2nnnn2-c2ccccc2)c(C)n1CCc1ccccc1` yielded a z-score of 0.0595. `O=C(NCC1CCCO1)c1nn2cccnc2c1Cl` (stereo unspecified) was tested, and the z-score was 0.098. `COc1ccccc1-n1nnnc1SCC(=O)NC1CCCC1` gave a z-score of -0.293. With `O=C(O)c1cc(-c2cccc(Cl)c2)nc2nc(N3CCCCC3)sc12` the z-score was -2.04. For `O=C(c1cc2ccccc2oc1=O)N1CCN(C(=O)C2CCCO2)CC1` (stereo unspecified), the z-score was -0.35. Work on `COC(=O)c1sccc1NC(=O)c1cc(OC)c(OC)c(OC)c1` yielded a z-score of -0.289. `CC(=O)N1CCN(Cc2nc3cc(NC(=O)C4CCCCC4)ccc3n2C)CC1` gave a z-score of -0.151. Compound `O=C(Cc1cccs1)NCc1cccs1` has a z-score of 0.383. For `Fc1cc(F)c2nc(N3CCOCC3)sc2c1`, the z-score was -0.0475. With `CC1=NN(C(=O)CCc2ccccc2O)C(O)(C(F)(F)F)C1` (stereo unspecified) the z-score was -0.0235. In the case of `CC1=CCC2C(=O)N(c3ccc(C(=O)N4CCCCCC4)cc3)C(=O)C2C1` (stereo unspecified), the z-score was -0.103. With `O=C(Cn1ccc([N+](=O)[O-])n1)NCc1cccs1` the z-score was -0.494. `Cc1cc(NC(=O)CSc2nnc(-c3cccs3)n2N)no1` showed a z-score of -0.647. `O=C(c1ccco1)N1C(=O)c2cccc3c(S(=O)(=O)N4CCCC4)ccc1c23` gave a z-score of 0.0162. For `Cc1cc(C)n(-c2nnc(C)n2/N=C/c2ccccc2O)n1`, the z-score was 0.187. With `CCC(=O)Oc1oc(-c2ccccc2)nc1C=Nc1ccccc1OC` the z-score was active: -3.23. `CC1(C)Cc2ccccc2-c2nnc(SCC(=O)Nc3ccc4c(c3)OCO4)n21` showed a z-score of 1.08. `Cc1ccc(N(CC(=O)NCC2CCCO2)S(C)(=O)=O)cc1Cl` (stereo unspecified) showed a z-score of 0.409. With `Cc1ccc(C2NC(c3ccc(C)cc3)C(C)C(=NO)C2C)cc1` (stereo unspecified) the z-score was -0.376. Compound `O=C(c1ccc(NC(=O)C2(c3ccccc3)CCOCC2)cc1)N1CCOCC1` has a z-score of -0.149. Compound `COc1ccccc1N1CCN(C2CCCC(C)C2)CC1` (stereo unspecified) has a z-score of 0.0333. `O=C(c1ccccc1)c1cnc(-c2ccc(Cl)cc2)s1` was tested, and the z-score was -0.16. `COc1cccc(CN=CC2=C(O)CC(C)(C)CC2=O)c1OC` gave a z-score of -0.218. `CCCCN(CCCC)S(=O)(=O)c1ccc(NC(=O)c2cccs2)cc1` gave a z-score of 0.572. `O=C(COc1ccc2c(C(F)(F)F)cc(=O)oc2c1)Nc1ccc(N2CCOCC2)cc1` showed a z-score of 0.563. In the case of `CCn1c(=O)cc(OCC(=O)NCCC(C)C)c2ccccc21`, the z-score was 0.045. `COC(=O)c1cc(NS(=O)(=O)c2ccc(OC)c(OC)c2)ccc1Cl` was tested, and the z-score was 0.211. `Cc1ccc(C2CC(C(F)(F)F)n3ncc(C(N)=O)c3N2)cc1` (stereo unspecified) was tested, and the z-score was -0.048. Compound `O=C(CN1CCN(S(=O)(=O)c2ccc(Cl)cc2)CC1)Nc1ccc2c(c1)OCCO2` has a z-score of -1.19. In the case of `Cc1nn(Cc2cccc(C(=O)N3N=C(C(F)F)CC3(O)C(F)F)c2)c(C)c1[N+](=O)[O-]` (stereo unspecified), the z-score was -0.0565. `O=C(O)c1ccccc1-c1ccccc1C(=O)Nc1ccccc1` was tested, and the z-score was -0.395. `CCn1c2ccccc2c2cc(NC(=O)COC(=O)c3cc(S(=O)(=O)N4CCCCC4)ccc3Cl)ccc21` gave a z-score of -0.171. `Cn1c(=O)c2c(nc(NCc3ccc4c(c3)OCO4)n2Cc2ccccc2F)n(C)c1=O` gave a z-score of -1.19. Work on `CNc1nc(SCc2ccc(C)cc2)nc2c1CCCC2` yielded a z-score of 0.159. `CSC(=NCc1cccnc1)NS(=O)(=O)c1cccs1` was tested, and the z-score was 1.2. `O=C(Nc1ccc(S(=O)(=O)N2CCCCCC2)cc1)c1ccco1` gave a z-score of -0.549. In the case of `COc1ccccc1-n1c(SCC(=O)NC(C)(C)C)nc(O)c(Cc2ccccc2)c1=O`, the z-score was -0.0604.
